For this experiment, the target named is syntaxin1A (amino acids 4-266) (UniProt P32851). Nature of the experiment: native gel or EMSA. Background: Mobility shift assays separate free from complexed probe on a gel.

The results in this text go back to paper PMC2174276 (The Journal of Cell Biology, 2000).

Chain of UniProt P32851 (P32851 4-266): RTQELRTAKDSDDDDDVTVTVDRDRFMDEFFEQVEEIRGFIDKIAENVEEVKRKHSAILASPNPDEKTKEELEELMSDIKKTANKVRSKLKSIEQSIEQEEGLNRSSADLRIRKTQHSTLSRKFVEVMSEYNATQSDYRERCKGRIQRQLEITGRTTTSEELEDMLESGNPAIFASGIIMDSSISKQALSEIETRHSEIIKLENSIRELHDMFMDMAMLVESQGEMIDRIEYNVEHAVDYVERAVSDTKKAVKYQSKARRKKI

B1: VAMP2 cytoplasmic domain ([…]) (domain or fragment)
chain: not shown
As for B1, the binding result is listed as “binds”.

B2: SNAP-25 ([…], four cysteines mutated to alanines) (natural protein)
chain: not shown
On to B2, for which the binding result is listed as “binds”.
